Some of the results follow. The energies were worked out here from pooled read counts, against the library average; single values are noisy.
molecular target: T1, Pho4 (S. cerevisiae) (UniProt P07270); assay: relative binding free energy (BET-seq); higher = weaker binding; details: reference: library average
T1 sequence: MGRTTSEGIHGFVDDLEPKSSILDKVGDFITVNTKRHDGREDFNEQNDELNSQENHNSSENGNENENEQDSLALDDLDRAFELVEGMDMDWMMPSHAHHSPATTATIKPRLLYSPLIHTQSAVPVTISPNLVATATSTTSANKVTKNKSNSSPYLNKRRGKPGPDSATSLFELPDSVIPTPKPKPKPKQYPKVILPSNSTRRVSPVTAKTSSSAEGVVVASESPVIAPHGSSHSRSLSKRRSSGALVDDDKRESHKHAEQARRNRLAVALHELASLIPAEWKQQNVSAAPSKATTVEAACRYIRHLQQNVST

Sequence	relative binding free energy
GAGGTCACGTGAATGT	0.33 kcal/mol
TGTAGCACGTGGATTT	-0.04 kcal/mol
AAGGGCACGTGTATAT	0 kcal/mol
AAGCTCACGTGTGTTT	0.3 kcal/mol
GGCATCACGTGGGGAG	0.07 kcal/mol
GGGTCCACGTGTGTGC	0.1 kcal/mol
TTACGCACGTGTGATT	-0.19 kcal/mol
GTTTGCACGTGTGTTC	0.13 kcal/mol
GAGGTCACGTGTTTAT	0.26 kcal/mol
GTTGGCACGTGGTTAC	0.02 kcal/mol
TATATCACGTGGTTGG	0.1 kcal/mol
TTGTTCACGTGTATTG	0.29 kcal/mol
GTGGGCACGTGACAGT	-0.03 kcal/mol
GGGGGCACGTGGCCGT	-0.2 kcal/mol
GTTCACACGTGGTATG	0.04 kcal/mol
ATTTGCACGTGACTGT	0 kcal/mol
TGGTGCACGTGGTTTC	-0.02 kcal/mol
GGAGTCACGTGTTTGG	0.27 kcal/mol
TATTACACGTGTGGCA	0.09 kcal/mol
TGTTACACGTGAAATG	0.15 kcal/mol
AAAGACACGTGCGTGG	-0.07 kcal/mol
TTGTGCACGTGTTCCG	-0.11 kcal/mol
AGTTACACGTGAGTAA	0.24 kcal/mol

Sequence	relative binding free energy
CGTTGCACGTGTACGG	0.08 kcal/mol
AGTGCCACGTGGCGTG	-0.22 kcal/mol
CTAGGCACGTGGGAGC	-0.16 kcal/mol
TTTTTCACGTGTTTTT	0.35 kcal/mol
TTAGGCACGTGGAGCA	-0.14 kcal/mol
CACGTCACGTGTTGTG	0 kcal/mol
TGGATCACGTGATGCG	0.23 kcal/mol
AAGGTCACGTGATTTA	0.17 kcal/mol
TGTAGCACGTGTGGCC	-0.03 kcal/mol
AGAGCCACGTGAGGTT	0.18 kcal/mol
GGCGTCACGTGAGTAG	0.29 kcal/mol
GATTTCACGTGATTCT	0.35 kcal/mol
ATTTTCACGTGTGATA	0.31 kcal/mol
AACAGCACGTGGTGTT	-0.12 kcal/mol
TCATTCACGTGTGGTG	0.2 kcal/mol
TTAAGCACGTGGGAGT	-0.19 kcal/mol
ATTTACACGTGAGTTA	0.29 kcal/mol
TGGATCACGTGTTTAT	0.16 kcal/mol
TGTGTCACGTGACGGG	0.16 kcal/mol
TTGTTCACGTGTCCGT	0.23 kcal/mol
CTGGTCACGTGGAGTC	0.13 kcal/mol
GGAACCACGTGTGGGT	0 kcal/mol
AGTGTCACGTGCTGGC	-0.1 kcal/mol

Sequence	relative binding free energy
TGATTCACGTGTAGGG	0.37 kcal/mol
CAAGTCACGTGGTGGA	0.12 kcal/mol
CAAGGCACGTGAAGTT	0.14 kcal/mol
GGTAACACGTGAATGT	0.42 kcal/mol
TTTTTCACGTGTTGGG	0.27 kcal/mol
TAGTACACGTGTGAGG	0.11 kcal/mol
TTCGGCACGTGGCATG	-0.22 kcal/mol
GTGCGCACGTGATGGC	0.06 kcal/mol
GGTAACACGTGGTGGT	-0.01 kcal/mol
TGCGACACGTGGGAAT	-0.05 kcal/mol
TTAGGCACGTGTAAAT	0.09 kcal/mol
TGTTCCACGTGTATGT	-0.1 kcal/mol
TTGGCCACGTGGGGAT	-0.25 kcal/mol
GTAGACACGTGGAGGC	0 kcal/mol
ATGTGCACGTGGAGTG	-0.13 kcal/mol
TTTTCCACGTGGAAGG	0.17 kcal/mol
AATGGCACGTGGGGAT	-0.19 kcal/mol
TTCTACACGTGGTTGG	0.03 kcal/mol
ATAGACACGTGGCGGT	-0.25 kcal/mol
TTCTTCACGTGCGTAT	0.38 kcal/mol
TTTGACACGTGATAAG	0.19 kcal/mol
TGGTTCACGTGTAGTA	0.26 kcal/mol
CTGTTCACGTGAGGGT	0.31 kcal/mol

Sequence	relative binding free energy
ATATTCACGTGTAATA	0.14 kcal/mol
GGAGTCACGTGACGTG	0.22 kcal/mol
TCTGGCACGTGCGGAT	-0.13 kcal/mol
GTTTGCACGTGGACTT	-0.07 kcal/mol
TAGTACACGTGGCGTT	0.02 kcal/mol
GGATTCACGTGTAGTG	0.3 kcal/mol
GTTACCACGTGGTGTA	0.01 kcal/mol
CTGAACACGTGAGTGT	0.25 kcal/mol
GGGGACACGTGTAATA	0.13 kcal/mol
AGGACCACGTGGTTTG	-0.07 kcal/mol
AGTAACACGTGAGTTG	0.19 kcal/mol
TTAAACACGTGATGTC	0.24 kcal/mol
TTGAACACGTGTTGGC	0.2 kcal/mol
AATGGCACGTGACGGT	0.01 kcal/mol
AAGGGCACGTGTTGTT	-0.02 kcal/mol
CTTTTCACGTGTGTTT	0.33 kcal/mol
GCAGTCACGTGGGGGC	0 kcal/mol
GGAGGCACGTGCGGAT	-0.09 kcal/mol
TTGCGCACGTGTATGA	-0.18 kcal/mol
GTAAGCACGTGATTTA	0.03 kcal/mol
TACTTCACGTGTTTGA	0.17 kcal/mol
TATAGCACGTGTGAGG	0.09 kcal/mol
GTAGACACGTGTTGTA	0.01 kcal/mol

Sequence	relative binding free energy
TTCATCACGTGCGGGC	0.2 kcal/mol
GGGCACACGTGGGGTC	0 kcal/mol
TTGGACACGTGTGAAA	0.17 kcal/mol
TTTTACACGTGTAGTT	0.21 kcal/mol
GGTTTCACGTGGGAAG	0.39 kcal/mol
ATTTACACGTGTAAAG	0.14 kcal/mol
ACGAGCACGTGTTGTG	-0.03 kcal/mol
GTAAACACGTGGGGGC	-0.03 kcal/mol
GTTATCACGTGTTGTT	0.25 kcal/mol
TTGCGCACGTGGGTGC	-0.29 kcal/mol
GTGTACACGTGTAGGG	0.09 kcal/mol
ATAGTCACGTGATAGT	0.18 kcal/mol
AGTATCACGTGATTAA	0.24 kcal/mol
TTGTGCACGTGGATCA	-0.15 kcal/mol
TTCAGCACGTGGTGAT	-0.12 kcal/mol
AAGCACACGTGTGGGT	0.05 kcal/mol
TTTTACACGTGATGCT	0.16 kcal/mol
CGGGGCACGTGTGATA	-0.11 kcal/mol
GACGGCACGTGGAAGG	0.09 kcal/mol
GTTTACACGTGCTTTT	0.07 kcal/mol
CAGTGCACGTGTGCAG	0.04 kcal/mol
AGATTCACGTGGCTGG	0.14 kcal/mol
GTGTTCACGTGAGAGT	0.34 kcal/mol
